Read counts are not given, so values of variants with three or more changes are uncertain.
B1: LINE1-mini (parent)
chain: GGCAGAGCUCAACACAGCGUGGCAAAGUGGCUGUGGCUAGACUGCC

Variants of: B1
Experiment: self-cleavage, relative activity (ratio to wild type); higher = more cleavage; in vitro, sequencing; the parent is a self-cleaving ribozyme

Variant | self-cleavage
U9G C13A C15A G21U C46G | 0
U9G C13A C23A A25U G33U G36U G44U C46A | 0.01
U9G C13A C42G | 0.11
U9G C13A C45U | 0.01
U9G C13A U20G G21U | 0.07
U9G C13U C37U U38A | 0.05
U9G C13U U20G | 0
U9G C15A G19U G29C C37G G40A | 0.08
U9G C15A G33C C45G | 0.01
U9G C15G A25G U28G G35U | 0.01
U9G C15G C23U | 0.05
U9G C15U A24C C45U | 0.02
U9G C15U A24C G35U G44U | 0.11
U9G C15U A24G U28G G36U | 0.15
U9G C15U U20G G40U | 0.36
U9G C15U U34C | 0.01
U9G C15U U38C | 0.11
U9G C18G U20A G27U | 0.06
U9G C18U A25G C37A | 0.15
U9G C18U C23U G40A | 0.02
U9G C18U G21C C23G C46A | 0.03
U9G C18U G21U G33C G35U | 0.03
U9G C23A A24C | 0.01
U9G C23A C46G | 0.04

Variant | self-cleavage
U9G C23G G36U C46G | 0.09
U9G C23G U28G U34G | 0.02
U9G C23U C42U | 0.07
U9G C23U G29C U34G | 0.08
U9G C23U G36A | 0.11
U9G G17A G27U | 0.12
U9G G17A G33C | 0.02
U9G G17A U32A C42A | 0.06
U9G G17U G21C G35U A39G G40U | 0
U9G G17U G22U A25U | 0.15
U9G G17U U20C G22U C31U | 0.04
U9G G19A G22U U32C | 0.09
U9G G19C G21U C37A A41U | 0.15
U9G G19C G22C | 0.05
U9G G19U G21U | 0
U9G G19U G22A U34C G36U A41U G44C | 0
U9G G19U G33A U34A C42U C45G | 0.14
U9G G19U G35A | 0.05
U9G G21A G36C | 0.04
U9G G21C C31G | 0.05
U9G G21C G36C C37U | 0.06
U9G G21U A26U G40U | 0.03
U9G G21U A41G | 0.05
U9G G21U G44U | 0.01

Variant | self-cleavage
U9G G22U C46U | 0.13
U9G G27A C46A | 0.24
U9G G27C C31A U32C | 0.1
U9G G27U C37U | 0.06
U9G G27U U28A | 0.13
U9G G29A G33U | 0.07
U9G G29A U32A | 0.04
U9G G29U A41U | 0.09
U9G G29U C37U | 0.06
U9G G30A G33A C37G C46U | 0.01
U9G G33C C45G | 0.03
U9G G36A G40A | 0.68
U9G G36U C45A | 0.52
U9G U20A A24U C46U | 0.02
U9G U20C A41U C45G | 0.05
U9G U20G C46G | 0.01
U9G U20G G27A G29A G35C | 0.07
U9G U28G G40U | 0.04
U9G U32C U34A C37U | 0.02
U9G U34C G35C G36A U38A | 0.02
U9G U34G C45U | 0.05
U9G U38A C42G | 0.04
C10A A11C A12U | 0.02
C10A A11C A12U A39C | 0.01

Variant | self-cleavage
C10A A11C A25C G36U | 0.04
C10A A11C C15A G36A | 0.06
C10A A11C C31G U32G | 0.03
C10A A11C G17C U20A U38A A41G G44C | 0
C10A A11C G19U | 0.01
C10A A11C G30U G35U A41G C46G | 0.03
C10A A11G A12U C15U G29A A41U | 0.01
C10A A11G A16C G19C G33A G35A A41C | 0
C10A A11G C18G C37A A41G C42A | 0
C10A A11G G19U | 0.01
C10A A11G G21U C42G | 0.01
C10A A11G G30A C46G | 0.02
C10A A11G G44C | 0.02
C10A A11G U32A G44U | 0.05
C10A A11U A12G C37A | 0.01
C10A A11U A16C C45G | 0
C10A A11U C15A A25C C37G | 0.01
C10A A11U C15A C45A | 0
C10A A11U C23A C37A | 0.01
C10A A11U G22A G33C C45A | 0.01
C10A A11U G30A G44A | 0
C10A A11U G30C C31A G33U | 0.02
C10A A11U U34G | 0.09
C10A A12C A16G G17U | 0.01

Variant | self-cleavage
C10A A12C A24C A26C G30U U43A | 0
C10A A12C C13G G21U C23U C31G | 0.02
C10A A12C G17A | 0.01
C10A A12C G27U G44A C45U | 0.01
C10A A12C G29U U38A | 0
C10A A12C U20C G22U A25U G33A G40C | 0
C10A A12C U28C | 0.02
C10A A12C U38A | 0.03
C10A A12G A25U G33C G36U | 0.06
C10A A12G C42A | 0.01
C10A A12G C45A | 0.03
C10A A12G G40A G44C | 0
C10A A12G U28G | 0.03
C10A A12U A14G | 0.05
C10A A12U C13U | 0.02
C10A A12U C13U G30A | 0.04
C10A A12U C31U G44C | 0
C10A A12U G27A | 0.02
C10A A12U G36U | 0.03
C10A A14C A25C A26C G35U U38G C42U | 0.02
C10A A14C A25U A26G A41C | 0.02
C10A A14C A26G | 0
C10A A14C C15G A16G | 0.01
C10A A14C C31G G36C A41G C45G C46A | 0.01

Variant | self-cleavage
C10A A14C G29C C37G | 0.01
C10A A14G A16G G44U | 0.03
C10A A14G C18A A25U U28A C37A | 0.01
C10A A14G C31U A39G C42U | 0.02
C10A A14G C37U | 0.01
C10A A14G G17A G22U C45A | 0.03
C10A A14G G17U A24G | 0.01
C10A A14G G21C G33C | 0
C10A A14G G22U G27C C31U G33C U38G | 0
C10A A14G G27U G30C | 0.01
C10A A14G U28G G36A | 0.03
C10A A14U C18U G35C G44U | 0.03
C10A A14U C23U C42U | 0.26
C10A A14U G17C G21C | 0.02
C10A A16C A39C | 0.01
C10A A16C C18G | 0.01
C10A A16G A24C C46A | 0.02
C10A A16U A26U G27U G36A U38G | 0.02
C10A A16U C18A A41G | 0.04
C10A A16U C23A | 0.02
C10A A16U G21U | 0.05
C10A A16U U38G G44A | 0.03
C10A A24C C37U | 0.01
C10A A24C C42A | 0.03

Variant | self-cleavage
C10A A24C G40U | 0
C10A A24C U28G U34A C46G | 0
C10A A25C A26G C46G | 0
C10A A25C G27C A41U | 0.01
C10A A25C U38G | 0.01
C10A A25G A26C | 0.02
C10A A25G G35A G40C | 0.01
C10A A25G G44C | 0.02
C10A A25U G29U U34G | 0.02
C10A A26C A41G | 0
C10A A26C C37U A39U C45A | 0.01
C10A A26C G30U C45U | 0.04
C10A A26G G30C C31A A41G U43A | 0.01
C10A A26U C31A G44A C46G | 0
C10A A39C C42A | 0.06
C10A A39C C45G | 0.02
C10A A39G G44A | 0.05
C10A A39U G40U | 0
C10A A39U G44C | 0.01
C10A A41G C42A C46A | 0.01
C10A A41U G44U | 0
C10A C13A C15A | 0.02
C10A C13A C31A | 0.04

— the RNAGym collection of RNA variant scans (doi:10.7554/elife.90254)
